{
  "source": "PubChem BioAssay AID1508623",
  "about": "(National Center for Advancing Translational Sciences (NCATS), 2021)",
  "note": "The campaign covered roughly 48,000 compounds. About 450 (0.94%) were called active. About 19% were inconclusive and are not listed. Calls come from the whole dose curve; as a rule, active = well fitted inhibition curve with a large enough effect; inconclusive = small, poorly fitted or top-dose-only effect; inactive = no such curve, though single readings can be large or run the other way. This is one part of the list. Potency is the fitted concentration of half-maximal effect.",
  "data": [
    {"assay": "Primary qHTS for Identification of Small Molecule Inhibitors of Huntingtin Promoter Activity; note: nearly all actives have a fitted effect of over 50% in size", "conditions": "HEK293 HTT promoter firefly luciferase reporter (activity 0% = vehicle and -100% = no light), 24 h; series mostly up to 57.5 µM; activity change, negative = inhibition: at the top concentration", "in_short": "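Quantitative HTS used concentration series of up to 57.5 uM final on HEK293 luciferase reporter cells, 24 h at 37 degrees C. Readout was Dual-Glo firefly luminescence.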", "values": [
      {"smiles": "Cc1ccc(NC(=O)Cn2c(=O)n(Cc3ccccc3)c(=O)c3c(C)c(C)sc32)c(C)c1", "activity change, negative = inhibition": "inactive: -5.79%"},
      {"smiles": "CCC(Cc1ccccc1)NC(=O)c1ccc2nc(N3CCC(C)CC3)sc2c1", "note": "(stereo not given)", "Potency": "active: 1260 nM"},
      {"smiles": "CCOC(=O)c1ccc(-n2c(N)c(C(=O)OC)c3nc4ccccc4nc32)cc1", "activity change, negative = inhibition": "inactive: -11.4%"},
      {"smiles": "CCc1ccccc1NC(=O)C1=CC(c2ccc(OC)c(OC)c2)=NS(=O)(=O)N1C", "activity change, negative = inhibition": "inactive: -28.6%"},
      {"smiles": "Cc1cccc(C)c1OCC(=O)NCC1(N2CCOCC2)CCCCC1", "activity change, negative = inhibition": "inactive: -28.1%"},
      {"smiles": "CC1CCCN(c2csc3ccc(F)cc3c2=O)C1", "note": "(stereo not given)", "activity change, negative = inhibition": "inactive: 61.1%"},
      {"smiles": "COc1ccc(OC(=O)c2nc(SCc3ccc(C)cc3)ncc2Cl)cc1", "activity change, negative = inhibition": "inactive: 0.461%"},
      {"smiles": "CCCOc1ccc(C(=O)Nc2cccc(-c3nc4ccccc4[nH]3)c2)cc1", "activity change, negative = inhibition": "inactive: -0.0878%"},
      {"smiles": "Cc1ccc(-c2nc(C)c(CCNC(=O)C(=O)Nc3ccc4c(c3)OCCO4)s2)cc1", "activity change, negative = inhibition": "inactive: -5.58%"},
      {"smiles": "CCC(CC)C(=O)Nc1cccc(-c2nc3cccnc3s2)c1C", "activity change, negative = inhibition": "inactive: -14%"},
      {"smiles": "COc1ccc(-n2nc3ccc(NC(=O)c4cc5ccccc5o4)cc3n2)cc1Cl", "activity change, negative = inhibition": "inactive: -5.97%"},
      {"smiles": "CCc1ccc(-c2nn(CC(=O)NC3CCCC3)c3c2cnc2ccc(C)cc23)cc1", "activity change, negative = inhibition": "inactive: -16.4%"},
      {"smiles": "CC1(C)O[C@H]2[C@@H](O1)[C@@H](C(=O)Nc1ccccc1O)O[C@@H]1OC(C)(C)O[C@@H]12", "activity change, negative = inhibition": "inactive: -14.5%"},
      {"smiles": "CCOc1cc(C2C(C(=O)OC)=C(C)NC3=C2C(=O)c2ccccc23)ccc1O", "note": "(stereo not given)", "activity change, negative = inhibition": "inactive: -20.7%"},
      {"smiles": "FC(F)(F)c1ccccc1-n1ccnc1", "activity change, negative = inhibition": "inactive: 3.76%"},
      {"smiles": "Cc1cccc(/C=C/c2onc(C)c2S(=O)(=O)N2CCC(C(=O)N3CCC(C)CC3)CC2)c1", "activity change, negative = inhibition": "inactive: -3.69%"},
      {"smiles": "Cc1ccc(C(C)C)c(OCC(=O)Nc2c(C(=O)c3ccccc3)oc3ccccc23)c1", "activity change, negative = inhibition": "inactive: 13%"},
      {"smiles": "Cc1ccc(NC(=O)c2sc3ccccc3c2Cl)cc1", "activity change, negative = inhibition": "inactive: 62.8%"},
      {"smiles": "Cc1ccc(CN2C(=O)c3ccccc3C2C(=O)NC2CCCCCC2)cc1", "note": "(stereo not given)", "activity change, negative = inhibition": "inactive: 6.6%"},
      {"smiles": "CCOc1ccccc1NC(=O)c1c(C)cc(C)nc1SCC(=O)c1cccc(OC)c1", "activity change, negative = inhibition": "inactive: -27.8%"},
      {"smiles": "COc1ccc(CNC(=O)CCn2nc(C)c3c(C)n(-c4ccccc4)nc3c2=O)cc1OC", "activity change, negative = inhibition": "inactive: -6.51%"},
      {"smiles": "Cc1cccn2c(=O)c(/C=C(\\C#N)c3nc4ccccc4n3C)c(Oc3ccc(Br)cc3)nc12", "activity change, negative = inhibition": "inactive: -3.21%"},
      {"smiles": "Cc1ccc(NC(=O)CCCn2nc(C)c3c(C)n(-c4ccccc4)nc3c2=O)cc1Cl", "activity change, negative = inhibition": "inactive: -3.54%"},
      {"smiles": "O=C(CN1CCN(c2ccc(Cl)cc2)CC1)Nc1ccc(F)cc1F", "activity change, negative = inhibition": "inactive: 18.7%"},
      {"smiles": "CCOc1ccc(N(CC(=O)Nc2ccc(F)cc2F)S(=O)(=O)c2c(C)[nH]c(=O)[nH]c2=O)cc1", "activity change, negative = inhibition": "inactive: -21.2% [at 11.5 µM]"},
      {"smiles": "CN1C(=O)c2ccccc2Sc2ccc(NC(=O)Nc3ccccc3F)cc21", "activity change, negative = inhibition": "inactive: -1.7%"},
      {"smiles": "COc1ccc(CN(CCC(c2ccc3c(c2)OCO3)c2ccccc2OC)C(C)=O)cc1", "note": "(stereo not given)", "activity change, negative = inhibition": "inactive: -16.5%"},
      {"smiles": "CCOCCCn1c(=N)c(S(=O)(=O)c2ccc(C)cc2)cc2c(=O)n3cccc(C)c3nc21", "activity change, negative = inhibition": "inactive: -1.48%"},
      {"smiles": "O=C(NCC(c1ccc2c(c1)OCO2)N1CCN(c2ccccc2)CC1)c1ccccc1F", "note": "(stereo not given)", "activity change, negative = inhibition": "inactive: 25.1%"},
      {"smiles": "Cc1ccc(-c2cc(N)n3nc(-c4ccc(C)cc4)cc3n2)cc1", "activity change, negative = inhibition": "inactive: -11.2%"},
      {"smiles": "CCOC(=O)c1noc2ncnc(N(CCC(=O)OC)c3ccccc3)c12", "activity change, negative = inhibition": "inactive: -27.5%"},
      {"smiles": "CCOC(=O)c1noc2ncnc(Nc3ccc(C)c(F)c3)c12", "activity change, negative = inhibition": "inactive: 3.61%"},
      {"smiles": "CN1CCN(CCCNC(=O)Cn2c(-c3cccs3)cc3ccccc32)CC1", "activity change, negative = inhibition": "inactive: -18.1%"},
      {"smiles": "Cc1ccc2c(c1)sc1nc(=O)n(-c3ccc(Cl)cc3)c(=O)n12", "activity change, negative = inhibition": "inactive: -5.45%"},
      {"smiles": "O=C(Cn1cc(SCc2ccc(C(F)(F)F)cc2)c2ccccc21)N1CCCCC1", "activity change, negative = inhibition": "inactive: -28.3%"},
      {"smiles": "CCc1cccc2c(-c3ccccc3)nc(SCC(=O)Nc3ccccc3)nc12", "activity change, negative = inhibition": "inactive: 5.13%"},
      {"smiles": "COc1ccc2c(CNCc3ccc(Cl)cc3)c(C(=O)O)n(Cc3ccccc3C)c2c1", "activity change, negative = inhibition": "inactive: -23.9%"},
      {"smiles": "COc1ccc(-c2cc(C)no2)cc1S(=O)(=O)NCc1ccc(OC(C)C)cc1", "activity change, negative = inhibition": "inactive: -28.4%"},
      {"smiles": "CC(=O)c1ccc(N2CCN(c3nc4c(S(=O)(=O)c5ccccc5)nnn4c4ccc(Cl)cc34)CC2)cc1", "activity change, negative = inhibition": "inactive: -5.3%"},
      {"smiles": "Cc1cc(Br)ccc1NC(=O)c1cc2c(=O)n(C)c3cc(Cl)ccc3c2s1", "activity change, negative = inhibition": "inactive: -5.04%"},
      {"smiles": "O=C(NC1CC(=O)N(c2ccccc2)C1)C1CCCCC1", "note": "(stereo not given)", "activity change, negative = inhibition": "inactive: -24%"},
      {"smiles": "COc1ccc(NC(=O)C2=C(C)Nc3nc(SCc4ccccc4C)nn3C2c2ccc(Br)cc2)cc1", "note": "(stereo not given)", "activity change, negative = inhibition": "inactive: -12%"},
      {"smiles": "Cc1cccc(NC(=O)C2CCN(S(=O)(=O)c3cccc4nsnc34)CC2)c1C", "activity change, negative = inhibition": "inactive: -0.26%"},
      {"smiles": "NCCCC[C@H](N[C@@H](CCc1ccccc1)C(=O)O)C(=O)N1CCC[C@H]1C(=O)O", "activity change, negative = inhibition": "inactive: 11.7%"},
      {"smiles": "CN(C(=O)c1cc(-c2ccccc2O)on1)c1ccccc1", "activity change, negative = inhibition": "inactive: -12.6% [at 11.5 µM]"},
      {"smiles": "Cc1cc(C)c2oc(C(=O)N(Cc3ccc(F)cc3)C3CCS(=O)(=O)C3)cc(=O)c2c1", "note": "(stereo not given)", "activity change, negative = inhibition": "inactive: -9.36%"},
      {"smiles": "CSc1ccc(CCNc2ncnc3onc(C)c23)cc1", "Potency": "active: 1000 nM"},
      {"smiles": "CCOC(=O)c1c(C)oc2ccc(N(C(=O)Oc3ccccc3)S(=O)(=O)c3ccccc3)cc12", "activity change, negative = inhibition": "inactive: 0.877%"},
      {"smiles": "CCOc1ccc(/C=C(\\C#N)c2nc(-c3cc4ccccc4oc3=O)cs2)c(OCC)c1", "activity change, negative = inhibition": "inactive: 17.7%"},
      {"smiles": "CCN1CCN(C(c2ccc(OC)cc2)c2c(O)cc(C)n(CCOC)c2=O)CC1", "note": "(stereo not given)", "activity change, negative = inhibition": "inactive: -6.93%"},
      {"smiles": "COc1ccc(C(CNC(=O)COc2ccc(C)cc2)N2CCCCC2)cc1", "note": "(stereo not given)", "activity change, negative = inhibition": "inactive: -40.8%"},
      {"smiles": "COc1ccccc1NC(=O)c1c(NCc2sccc2C)sc2c1CCCCC2", "activity change, negative = inhibition": "inactive: -4.89%"},
      {"smiles": "CN(C(=O)Cn1c(=O)n(CCCS(=O)(=O)C2CCCCC2)c(=O)c2ccccc21)c1ccccc1", "activity change, negative = inhibition": "inactive: -14.1%"},
      {"smiles": "COc1ccc2c(CNCc3ccc(C)o3)c(C(=O)O)n(Cc3ccccc3)c2c1", "activity change, negative = inhibition": "inactive: -13.7%"},
      {"smiles": "CCOc1cc(-c2nc(-c3ccc(-c4ccc(C)cc4)nc3OC)no2)cc(OCC)c1OCC", "activity change, negative = inhibition": "inactive: -12.3%"},
      {"smiles": "Cc1cc(C)cc(N(CC(=O)Nc2cccc(C)c2C)S(=O)(=O)c2c(C)[nH]c(=O)[nH]c2=O)c1", "activity change, negative = inhibition": "inactive: -16.3% [at 11.5 µM]"},
      {"smiles": "COc1ccc(Cl)cc1NC(=O)Cn1c2ncccc2c(=O)n1-c1ccc(C)c(C)c1", "activity change, negative = inhibition": "inactive: -6.82%"},
      {"smiles": "COc1ccc(C2C=C(c3ccccc3)Nc3nc(NC(=O)c4ccc(C)cc4)nn32)cc1", "note": "(stereo not given)", "activity change, negative = inhibition": "inactive: -18.7%"},
      {"smiles": "COC(=O)c1ccc(Cl)cc1NC(=O)N1CC(C)Oc2ccccc21", "note": "(stereo not given)", "activity change, negative = inhibition": "inactive: -5.21%"},
      {"smiles": "Cc1cc(NS(=O)(=O)c2ccc(NC(=O)COc3ccc(Cl)cc3)cc2)nc(C)n1", "activity change, negative = inhibition": "inactive: -11.6%"}
    ]}
  ]
}
